Test results reported in PubChem BioAssay AID485367 (National Center for Advancing Translational Sciences (NCATS), 2010).
Screen size: about 330,000 compounds; about 560 (0.17%) were called active. The shares of active, inactive and inconclusive entries below differ from those in the screen. The call rests on the fitted dose curve; in most records, active means well fitted inhibition curve with a large enough effect; inconclusive means small, poorly fitted or top-dose-only effect, or effect the other way; inactive means flat fitted curve, though single readings scatter. No potency is given beside an inconclusive call; the fits are too rough.
Further: nearly all actives have a fitted effect of over 60% in size.
Potency means the concentration at half of the fitted maximal effect; tags describe the fitted curve by direction and shape.

These compounds were tested against ATP-dependent 6-phosphofructokinase (Trypanosoma brucei brucei) (UniProt O15648) (assay: qHTS Assay to Find Inhibitors of T. brucei phosphofructokinase). Conditions: T. brucei PFK, ADP-Glo luminescence; series mostly up to 57.5 µM.
UniProt O15648, sequence (O15648 whole entry, looked up): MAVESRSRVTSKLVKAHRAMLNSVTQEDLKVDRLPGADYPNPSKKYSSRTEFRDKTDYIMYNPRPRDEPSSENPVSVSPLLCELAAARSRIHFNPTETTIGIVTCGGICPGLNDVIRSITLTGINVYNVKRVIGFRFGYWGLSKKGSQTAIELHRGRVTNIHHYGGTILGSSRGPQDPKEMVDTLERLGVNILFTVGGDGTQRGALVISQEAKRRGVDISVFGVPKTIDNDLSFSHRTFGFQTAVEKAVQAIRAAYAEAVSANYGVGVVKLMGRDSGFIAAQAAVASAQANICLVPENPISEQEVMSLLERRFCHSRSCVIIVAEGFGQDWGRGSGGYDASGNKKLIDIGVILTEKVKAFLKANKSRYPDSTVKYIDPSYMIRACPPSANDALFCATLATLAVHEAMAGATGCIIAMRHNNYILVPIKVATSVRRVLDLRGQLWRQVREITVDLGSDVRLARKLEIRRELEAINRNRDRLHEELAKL
Summary of the method: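 PFK 1.25 nM, F6P 0.5 mM, ATP 0.1 mM, 0.1 M TEA pH 8.0, 5 mM MgCl2, 0.01% Tween20, 0.1% BSA; 45 min RT. ADP-Glo readout. qHTS titration up to 57 uM; curves fitted, compounds curve-classed.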
For CCS(=O)(=O)Nc1cccc(C2=NN(S(=O)(=O)c3ccccc3)C(c3ccco3)C2)c1 (stereo not drawn), the Potency was “inactive”.
With CC1(C)CC(N2CCN(CCO)CC2)=CC(=S)N1 the Potency was “inactive”.
O=C(N/N=C/c1ccc(OC(=O)c2ccccc2)c([N+](=O)[O-])c1)c1ccc(O)cc1 was tested, and the Potency was inconclusive [falling, partial curve].
In the case of O=C(NN=Cc1cc(Br)c(O)c(Br)c1)c1ccccc1NS(=O)(=O)c1cccs1, the Potency is reported as inconclusive [activator, single point].
O=C(COC(=O)/C=C/c1cccc(Cl)c1)NCCC1=CCCCC1 was tested, and the Potency was inconclusive [falling, single point].
For CC1CN(C(=O)COC(=O)c2ccc(N)c([N+](=O)[O-])c2)CC(C)O1 (stereo not drawn), the Potency was inconclusive [falling, single point].
With COc1ccccc1NC(=S)NCc1ccc2c(c1)OCO2 the Potency was inconclusive [falling, single point].
With COc1ccc(NC(=O)N2CCc3ccccc3C2)cc1 the Potency was “inactive”.
With Cc1csc(SCC(=O)NC2CCC(C)CC2)n1 (stereo not drawn) the Potency was inconclusive [activator, single point].
In the case of COc1ccccc1N1CCN(/N=C/c2ccc(O)c(O)c2)CC1, the Potency is reported as inconclusive [falling, single point].
Cc1ccc(/C=C2/NC(=O)N(Cc3ccccc3F)C2=O)o1 was tested, and the Potency was inconclusive [falling, partial curve].
In the case of O=C(Nc1cccnc1)c1ccc(Cl)c(Cl)c1, the Potency is reported as inconclusive [falling, single point].
In the case of COc1ccc(S(=O)Cc2ccc(C(=O)N3CCN(c4cccc(C)c4C)CC3)o2)cc1 (stereo not drawn), the Potency is reported as “inactive”.
In the case of CCN1/C(=C2\C(=O)N(C)C(=S)N2c2ccccc2)C=Cc2ccccc21, the Potency is reported as inconclusive [falling, single point].
For CCOCCCNC(=O)/C(C#N)=C/c1ccc(Cl)c([N+](=O)[O-])c1, the Potency was inconclusive [falling, single point].
With COc1ccccc1-c1nc2s/c(=C\c3cccs3)c(=O)n2n1 the Potency was “inactive”.
With CCN1C(=O)/C(=C\c2nc3ccccc3c(=O)n2-c2ccccc2)c2ccccc21 the Potency was inconclusive [falling, single point].
For COc1ccccc1C(CCN(Cc1cccs1)C(C)=O)c1ccco1 (stereo not drawn), the Potency was “inactive”.
COc1ccc(NC(=O)CN(C)C(=O)c2ccc(=O)[nH]c2)cc1 was tested, and the Potency was inconclusive [falling, single point].
In the case of CCn1c(=O)c(=O)n(CC)c2cc(S(=O)(=O)Nc3ccc(C)cc3)ccc21, the Potency is reported as “inactive”.
With COc1ccc(C=O)cc1COc1ccc(F)cc1F the Potency was inconclusive [falling, single point].
With O=C(CSc1nc2ccccc2[nH]1)Nc1ccc2[nH]c(=O)[nH]c2c1 the Potency was inconclusive [falling, single point].
In the case of COc1cc(C(=O)Nc2scc(-c3ccccc3)c2C(=O)O)cc(OC)c1OC, the Potency is reported as “inactive”.
For CCc1ccc(OCC(=O)N2CC(C(N)=O)Oc3ccccc32)cc1 (stereo not drawn), the Potency was inconclusive [falling, single point].
With CN(C)c1ccc(-c2nc3ccccc3n2C)cc1 the Potency was inconclusive [falling, partial curve, poor fit].
Cc1cc(NC(=O)CSC2=NS(=O)(=O)c3cc(Cl)ccc3N2)no1 was tested, and the Potency was inconclusive [falling, single point].
For O=C(NCc1ccco1)c1ccc2c(=O)n(Cc3ccco3)c(SCC(=O)N3CCCC3)nc2c1, the Potency was inconclusive [falling, partial curve].
CCCn1c(/C=C/c2ccccc2)nc2ccccc21 was tested, and the Potency was “inactive”.
In the case of c1ccc(CSc2nnc(-c3ccco3)c(-c3ccco3)n2)cc1, the Potency is reported as inconclusive [falling, full curve].
In the case of O=C(NCc1ccc2c(c1)OCO2)c1cc2ncc(Br)cn2n1, the Potency is reported as inconclusive [falling, partial curve].
Cc1ccc(C(=O)Oc2ccc(C(=O)COC(=O)C3CC(=O)N(Cc4ccco4)C3)cc2)cc1 (stereo not drawn) was tested, and the Potency was “inactive”.
In the case of Cc1nc2ccc(S(=O)(=O)NC(C(=O)Nc3nc4ccc(Cl)cc4s3)C(C)C)cc2s1 (stereo not drawn), the Potency is reported as inconclusive [falling, single point].
O=C(Nn1cnnc1)c1ccc(Cl)c([N+](=O)[O-])c1 was tested, and the Potency was inconclusive [activator, partial curve].
For CC(=O)C[C@@H](O)CC(=O)[C@@H]1OC(=O)[C@@H](C)CCCCc2ccccc21, the Potency was inconclusive [falling, single point].
With CCN(CC)C(=O)CSc1nc2c(c(-c3cccnc3)c1C#N)CCCC2 the Potency was “inactive”.
With Cc1nc(NC(=O)COC(=O)CNC(=O)c2ccco2)c(Cl)cc1Cl the Potency was inconclusive [falling, single point].
With Cc1ccc2cccnc2c1N the Potency was “inactive”.
CCCCN(C(=O)C1CCC1)c1c(N)n(CCC)c(=O)[nH]c1=O was tested, and the Potency was inconclusive [falling, single point].
For COc1ccc(C(=O)c2cn(CC(=O)Nc3cc(OC)cc(OC)c3)c3ccc(OC)cc3c2=O)cc1, the Potency was inconclusive [falling, full curve, poor fit].
With Cc1cc(C(=O)N/N=C/c2ccc3c(c2)OCO3)c(C)o1 the Potency was “inactive”.
For O=C(Cc1ccc(Cl)cc1)Nc1ccncc1, the Potency was inconclusive [falling, partial curve].
For O=C1CCCN1CCCNC(=S)Nc1ccccc1, the Potency was “inactive”.
In the case of O=C1c2ccccc2C(=O)C1(O)O, the Potency is reported as inconclusive [activator, partial curve].
CCOC(=O)c1c(-c2ccc(OC)cc2)csc1/N=C/C1=C(O)CCCC1=O was tested, and the Potency was inconclusive [activator, partial curve].
For O=C(COC(=O)Cc1cccc(C(F)(F)F)c1)NCc1ccco1, the Potency was active: 8.49 µM.
With COCCCNC(=O)c1cc(=O)n(Cc2ccc(Cl)cc2)c2ccccc12 the Potency was active: 10.7 µM.
CCOC(=O)N1CCN(S(=O)(=O)c2ccc(Br)s2)CC1 was tested, and the Potency was inconclusive [falling, single point].
With c1ccc(-c2csc(-n3cnnn3)n2)cc1 the Potency was inconclusive [falling, partial curve].
CS(=O)(=O)c1ccc2c(c1)sc1nc(=O)c(/C=C3/C=CC(=O)C(O)=C3)c(N)n12 was tested, and the Potency was “inactive”.
In the case of O=[N+]([O-])c1ccccc1CNc1ccc(F)c(Cl)c1, the Potency is reported as inconclusive [falling, partial curve].
CCOC(=O)c1c(-c2ccco2)csc1NC(=O)COC(=O)c1cnccn1 was tested, and the Potency was active: 6.75 µM.
CC1(C)CC[C@]2(C(=O)O)CC[C@]3(C)C(=CC[C@@H]4[C@@]5(C)CC[C@H](O[C@@H]6O[C@H](C(=O)O)[C@@H](O)[C@H](O[C@@H]7OC[C@H](O)[C@H](O)[C@H]7O)[C@H]6O)C(C)(C)[C@@H]5CC[C@]43C)[C@@H]2C1 was tested, and the Potency was inconclusive [falling, single point].
COc1ccc(S(=O)(=O)N2CCN(C(=O)COc3ccccc3)CC2)cc1 was tested, and the Potency was “inactive”.
With O=C1C(=O)N(Cc2ccco2)C(c2cccs2)/C1=C(\O)c1cccc([N+](=O)[O-])c1 (stereo not drawn) the Potency was inconclusive [falling, single point].
Nc1ccc2nc(-c3cccc(-c4nc5ccc(N)cc5[nH]4)c3)[nH]c2c1 was tested, and the Potency was inconclusive [activator, partial curve].
For O=C1c2ccccc2C(Nc2ccc3nc(-c4cccnc4)[nH]c3c2)N1Cc1ccco1 (stereo not drawn), the Potency was inconclusive [falling, single point].
COc1ccc(-c2cc(C(F)(F)F)nc(N3CCCCC3)n2)cc1OC was tested, and the Potency was “inactive”.
For Cc1cc(NS(=O)(=O)c2ccc(NC(=O)COc3ccc(C#N)cc3)cc2)nc(C)n1, the Potency was inconclusive [falling, single point].
For S=C(Nc1ccccn1)c1ccccn1, the Potency was inconclusive [falling, single point].
For O=C(Nc1cccc(-c2cnc3ccccc3n2)c1)C1CC(=O)N(c2ccccc2)C1 (stereo not drawn), the Potency was “inactive”.
In the case of O=C(CCCN1C(=O)/C(=C\c2ccco2)SC1=S)Nc1cccc2ccccc12, the Potency is reported as inconclusive [falling, single point].
In the case of COc1ccc(COCC(CC(C)C)N2CCN(C(=O)c3cccc(C(F)(F)F)c3)CCC2=O)cc1 (stereo not drawn), the Potency is reported as inconclusive [falling, single point].
With O=C1c2c(O)cccc2C(C2OC(CO)[C@@H](O)[C@H](O)[C@H]2O)c2cc(CO)cc(O)c21 (stereo partly drawn) the Potency was “inactive”.
O=C(O)c1ccc(Cl)c(S(=O)(=O)Nc2cccc(C(=O)Nc3cccc(C(F)(F)F)c3)c2)c1 was tested, and the Potency was inconclusive [falling, partial curve].
In the case of C#CCOCCOCCOCCNc1nc(N2CCN(C(=O)CCCCCCCCCCNC(=O)[C@@H](CCSC)n3cc(CCO)nn3)CC2)nc(N2CCN(C(=O)CCCCCCCCCCNC(=O)[C@H]([C@@H](C)CC)n3cc(CCCCN=C(N)N)nn3)CC2)n1, the Potency is reported as inconclusive [activator, single point].
With COc1cc(C)cc(C(=O)O)c1C1=C(O)c2cccc(O)c2C(=O)C1=O the Potency was “inactive”.
For Cc1ccc(NS(=O)(=O)c2cc([N+](=O)[O-])ccc2NNC(=S)Nc2cc(C)ccc2C)c(C)c1, the Potency was inconclusive [falling, single point].
In the case of S=C(c1ccc(Br)cc1)N1CCN(Cc2ccccc2)CC1, the Potency is reported as inconclusive [falling, partial curve].
